Measured values as given in the supplement of paper PMC11880418.
Where a name gives a salt, the structure may show the parent alone. The list shows a part of the results. The data scatter; read single values as rough.

Each compound was assayed on PANC1 (assay: ALDHbr (CSC) cell proportion score relative to DMSO vehicle (ratio to DMSO); breast (SUM159) / gastric (MKN45) / pancreatic (PANC1) / colon cancer lines; ALDHbr cells have high ALDH activity and are rich in cancer stem cells (CSC); higher = more CSC (ALDHbr) cells remaining). Details: 10 µM; 72 h.
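Note: High-content imaging of ALDEFLUOR-stained cells with Hoechst-labelled nuclei in 384-well plates, triplicate wells, scored as Z-score against 0.1% DMSO vehicle, negative meaning fewer ALDHbr cells.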

SMILES | ALDHbr
CC(C)(C)NCC(O)c1cc(Cl)c(N)c(Cl)c1 (stereo not drawn) [Clenbuterol hydrochloride] | 0.828
CNC(=O)Oc1ccc2c(c1)[C@]1(C)CCN(C)[C@@H]1N2C [Eserine hemisulfate salt] | 0.874
CN1[C@@H]2C[C@@H](OC(=O)[C@H](CO)c3ccccc3)C[C@H]1[C@@H]1O[C@@H]12 [Scopolamine hydrochloride] | 0.924
CCN[C@@H](C)Cc1cccc(C(F)(F)F)c1 [Dexfenfluramine hydrochloride] | 0.894
O=C(CCCN1CCC2(CC1)C(=O)NCN2c1ccccc1)c1ccc(F)cc1 [Spiperone] | 1.13
CN1C[C@H](C(=O)N[C@]2(C)O[C@@]3(O)[C@@H]4CCCN4C(=O)[C@H](Cc4ccccc4)N3C2=O)C[C@@H]2c3cccc4[nH]cc(c34)C[C@H]21 [Dihydroergotamine tartrate] | 0.725
CN1C[C@H](CNC(=O)OCc2ccccc2)C[C@@H]2c3cccc4c3c(cn4C)C[C@H]21 [Metergoline] | 0.833
C#C[C@]1(O)CC[C@H]2[C@@H]3CCC4=CC(=O)CCC4=C3C=C[C@@]21CC [Gestrinone] | 0.694
Clc1ccc(C(OCCN2CCCCC2)c2ccccc2)cc1 (stereo not drawn) [Cloperastine hydrochloride] | 1.16
O=c1[nH]c2ccccc2n1CCCN1CCC(n2c(=O)[nH]c3cc(Cl)ccc32)CC1 [Domperidone] | 0.591
Fc1ccc(C(OCCN2CCN(CCCc3ccccc3)CC2)c2ccc(F)cc2)cc1 | 0.487
CC(C)CC(N(C)C)C1(c2ccc(Cl)cc2)CCC1 (stereo not drawn) [Sibutramine hydrochloride] | 0.91
C[C@]12CCC(=O)C=C1CC[C@@H]1[C@@H]2C(=O)C[C@]2(C)C(=O)CC[C@@H]12 [Adrenosterone] | 0.91
NCC(CC(=O)O)c1ccc(Cl)cc1 (racemic) [Baclofen (R,S)] | 0.79
C[C@]12CC[C@@H](O)C[C@@H]1CC[C@@H]1[C@@H]2CC[C@]2(C)C(=O)CC[C@@H]12 [Androsterone] | 0.884
CCCC(C)(COC(N)=O)COC(=O)NC(C)C (stereo not drawn) [Carisoprodol] | 1
CC(=O)OCC(=O)[C@H]1CC[C@H]2[C@@H]3CC[C@H]4C[C@H](O)CC[C@]4(C)[C@H]3C(=O)C[C@]12C [Alfadolone acetate] | 0.837
C[C@H](N)[C@H](O)c1ccc(O)c(O)c1 [Levonordefrin] | 0.724
NC(=O)C[S+]([O-])C(c1ccccc1)c1ccccc1 (stereo not drawn) [Modafinil] | 0.864
NC(=O)CN1CCCC1=O [Piracetam] | 0.929
CC(O)(CS(=O)(=O)c1ccc(F)cc1)C(=O)Nc1ccc(C#N)c(C(F)(F)F)c1 (stereo not drawn) [Bicalutamide] | 0.959
O=c1[nH]oc2c1CCNC2 [THIP Hydrochloride] | 0.964
C[C@@H]1CC[C@H]2[C@@H](C)C(=O)O[C@@H]3O[C@@]4(C)CC[C@@H]1[C@]32OO4 [Artemisinin] | 1.05
C[N+]1([O-])[C@@H]2C[C@@H](OC(=O)[C@H](CO)c3ccccc3)C[C@H]1[C@@H]1O[C@@H]12 (stereo partly drawn) [Scopolamin-N-oxide hydrobromide] | 1.26

These compounds were tested on SUM159 in the same assay as above. Details: 10 µM; 72 h.

SMILES | ALDHbr
O=C(CCCN1CCC(n2c(=O)[nH]c3ccccc32)CC1)c1ccc(F)cc1 [Benperidol] | 1.49
CC(C)(C)NCC(O)c1ccccc1Cl (stereo not drawn) [Tulobuterol] | 2.33
CN[C@@H]1[C@@H](O)[C@@H](O[C@@H]2[C@@H](O)[C@H](O[C@H]3O[C@H](CN)CC[C@H]3N)[C@@H](N)C[C@H]2N)OC[C@]1(C)O.CN[C@@H]1[C@@H](O)[C@@H](O[C@@H]2[C@@H](O)[C@H](O[C@H]3O[C@H]([C@@H](C)N)CC[C@H]3N)[C@@H](N)C[C@H]2N)OC[C@]1(C)O.CN[C@@H]1[C@@H](O)[C@@H](O[C@@H]2[C@@H](O)[C@H](O[C@H]3O[C@H]([C@@H](C)NC)CC[C@H]3N)[C@@H](N)C[C@H]2N)OC[C@]1(C)O [Gentamicine sulfate] | 1.13
CC[C@@H](C(N)=O)N1CCCC1=O [Levetiracetam] | 1.29
C=C(C)[C@@H]1[C@H]2OC(=O)[C@@H]1[C@]1(O)C[C@H]3O[C@]34C(=O)O[C@H]2[C@]14C [Picrotoxinin] | 0.93
Oc1cc(Cl)ccc1Oc1ccc(Cl)cc1Cl [Triclosan] | 1.22
CC(Cc1ccc(O)cc1)NCC(O)c1cc(O)cc(O)c1 (stereo not drawn) [Fenoterol hydrobromide] | 1.91
C=CC[C@]1(O)CC[C@H]2[C@@H]3CCC4=CC(=O)CCC4=C3C=C[C@@]21C [Altrenogest] | 0.511
COc1ccc(OC)c(C(O)C(C)N)c1 (stereo not drawn) [Methoxamine hydrochloride] | 1.18
Cc1cc(C(C#N)c2ccc(Cl)cc2)c(Cl)cc1NC(=O)c1cc(I)cc(I)c1O (stereo not drawn) [Closantel] | 1.32
CC(C)(C)NCC(O)c1cc(Cl)c(N)c(Cl)c1 (stereo not drawn) [Clenbuterol hydrochloride] | 2.2
CNC(=O)Oc1ccc2c(c1)[C@]1(C)CCN(C)[C@@H]1N2C [Eserine hemisulfate salt] | 1.04
CN1[C@@H]2C[C@@H](OC(=O)[C@H](CO)c3ccccc3)C[C@H]1[C@@H]1O[C@@H]12 [Scopolamine hydrochloride] | 1.09
CCN[C@@H](C)Cc1cccc(C(F)(F)F)c1 [Dexfenfluramine hydrochloride] | 1.88
O=C(CCCN1CCC2(CC1)C(=O)NCN2c1ccccc1)c1ccc(F)cc1 [Spiperone] | 0.717
CN1C[C@H](C(=O)N[C@]2(C)O[C@@]3(O)[C@@H]4CCCN4C(=O)[C@H](Cc4ccccc4)N3C2=O)C[C@@H]2c3cccc4[nH]cc(c34)C[C@H]21 [Dihydroergotamine tartrate] | 0.935
CN1C[C@H](CNC(=O)OCc2ccccc2)C[C@@H]2c3cccc4c3c(cn4C)C[C@H]21 [Metergoline] | 0.215

SMILES | ALDHbr
C#C[C@]1(O)CC[C@H]2[C@@H]3CCC4=CC(=O)CCC4=C3C=C[C@@]21CC [Gestrinone] | 0.548
Clc1ccc(C(OCCN2CCCCC2)c2ccccc2)cc1 (stereo not drawn) [Cloperastine hydrochloride] | 0.88
O=c1[nH]c2ccccc2n1CCCN1CCC(n2c(=O)[nH]c3cc(Cl)ccc32)CC1 [Domperidone] | 0.707
Fc1ccc(C(OCCN2CCN(CCCc3ccccc3)CC2)c2ccc(F)cc2)cc1 | 0.58
CC(C)CC(N(C)C)C1(c2ccc(Cl)cc2)CCC1 (stereo not drawn) [Sibutramine hydrochloride] | 1.14
C[C@]12CCC(=O)C=C1CC[C@@H]1[C@@H]2C(=O)C[C@]2(C)C(=O)CC[C@@H]12 [Adrenosterone] | 0.9
NCC(CC(=O)O)c1ccc(Cl)cc1 (racemic) [Baclofen (R,S)] | 0.869
C[C@]12CC[C@@H](O)C[C@@H]1CC[C@@H]1[C@@H]2CC[C@]2(C)C(=O)CC[C@@H]12 [Androsterone] | 1.12
CCCC(C)(COC(N)=O)COC(=O)NC(C)C (stereo not drawn) [Carisoprodol] | 0.959
CC(=O)OCC(=O)[C@H]1CC[C@H]2[C@@H]3CC[C@H]4C[C@H](O)CC[C@]4(C)[C@H]3C(=O)C[C@]12C [Alfadolone acetate] | 0.751
C[C@H](N)[C@H](O)c1ccc(O)c(O)c1 [Levonordefrin] | 2.29
NC(=O)C[S+]([O-])C(c1ccccc1)c1ccccc1 (stereo not drawn) [Modafinil] | 1.04
NC(=O)CN1CCCC1=O [Piracetam] | 1.06
CC(O)(CS(=O)(=O)c1ccc(F)cc1)C(=O)Nc1ccc(C#N)c(C(F)(F)F)c1 (stereo not drawn) [Bicalutamide] | 0.964
O=c1[nH]oc2c1CCNC2 [THIP Hydrochloride] | 1.01
C[C@@H]1CC[C@H]2[C@@H](C)C(=O)O[C@@H]3O[C@@]4(C)CC[C@@H]1[C@]32OO4 [Artemisinin] | 0.574
C[N+]1([O-])[C@@H]2C[C@@H](OC(=O)[C@H](CO)c3ccccc3)C[C@H]1[C@@H]1O[C@@H]12 (stereo partly drawn) [Scopolamin-N-oxide hydrobromide] | 1.16
